Measurements reported in a collection of fitness landscapes (doi:10.1126/science.1257360).
This is one part of the list.

B1: PhoQ; a variant is named by its letters at X, in order, P23837 (parent)
chain: MKKLLRLFFPLSLRVRFLLATAAVVLVLSLAYGMVALIGYSVSFDKTTFRLLRGESNLFYTLAKWENNKLHVELPENIDKQSPTMTLIYDENGQLLWAQRDVPWLMKMIQPDWLKSNGFHEIEADVNDTSLLLSGDHSIQQQLQEVREDDDDAEMTHSVAVNVYPATSRMPKLTIVVVDTIPVELKSSYMVWSWFIYVLSANLLLVIPLLWVAAWWSLRPIEALAKEVRELEEHNRELLNPATTRELTSLVRNLNRLLKSERERYDKYRTTLTDLTHSLKTPLXXLQXXLRSLRSEKMSVSDAEPVMLEQISRISQQIGYYLHRASMRGGTLLSRELHPVAPLLDNLTSALNKVYQRKGVNISLDISPEISFVGEQNDFVEVMGNVLDNACKYCLEFVEISARQTDEHLYIVVEDDGPGIPLSKREVIFDRGQRVDTLRPGQGVGLAVAREITEQYEGKIVAGESMLGGARMEVIFGRQHSAPKDE

Variants of: B1
Assay: enrichment ratio after two sorts for PhoP signalling (ratio (wild type AVST 3.29)); higher = more functional
Conditions: with PhoP (E. coli)

Variant | enrichment ratio
PSRS | ≤ 0.25
PHQS | ≤ 0.25
DTCC | ≤ 0.25
EYYV | ≤ 0.25
LWMT | ≤ 0.25
SQYH | ≤ 0.25
MDAW | ≤ 0.25
PVNG | ≤ 0.25
LMDD | ≤ 0.25
KIKF | ≤ 0.25
GWAT | ≤ 0.25
ATMC | 11.2
GYMA | ≤ 0.25
NESC | ≤ 0.25
YQTW | ≤ 0.25
SPKW | ≤ 0.25
MWWC | ≤ 0.25
WYWA | ≤ 0.25
HPHA | ≤ 0.25
AGNY | ≤ 0.25
SNVF | 4.94
HNFW | ≤ 0.25
MVLS | 0.97
PVSF | ≤ 0.25

Variant | enrichment ratio
IYGV | ≤ 0.25
RDHP | ≤ 0.25
SVIE | ≤ 0.25
LERM | ≤ 0.25
IRRH | ≤ 0.25
TATA | 4.44
NRVM | ≤ 0.25
WTRI | ≤ 0.25
ANCQ | 3.31
IRCR | 0.646
VHAF | ≤ 0.25
TRKL | ≤ 0.25
FWDM | ≤ 0.25
TSPK | ≤ 0.25
FRCP | ≤ 0.25
HFFY | ≤ 0.25
TLYD | ≤ 0.25
PLCF | ≤ 0.25
IRAQ | ≤ 0.25
NPYH | ≤ 0.25
MLSK | ≤ 0.25
NKGT | ≤ 0.25
TGWP | ≤ 0.25
AKVA | 1.39

Variant | enrichment ratio
WRWY | ≤ 0.25
PKIM | ≤ 0.25
HWWC | ≤ 0.25
QCVV | ≤ 0.25
PYRF | ≤ 0.25
WHLC | ≤ 0.25
YKSQ | ≤ 0.25
LNLY | ≤ 0.25
GTIY | ≤ 0.25
EATR | ≤ 0.25
NHTI | ≤ 0.25
NVMC | ≤ 0.25
WYDK | ≤ 0.25
DCTS | ≤ 0.25
YWNS | ≤ 0.25
GWGC | ≤ 0.25
HHTH | ≤ 0.25
WQFS | ≤ 0.25
KKFH | ≤ 0.25
REEC | ≤ 0.25
EESC | ≤ 0.25
EMRP | ≤ 0.25
DMFF | ≤ 0.25
ATLE | ≤ 0.25

Variant | enrichment ratio
FEQN | ≤ 0.25
YCYY | ≤ 0.25
HCGY | ≤ 0.25
WHRR | ≤ 0.25
FQHD | ≤ 0.25
TDND | ≤ 0.25
MVRQ | ≤ 0.25
QVAS | ≤ 0.25
PYAE | ≤ 0.25
MIHL | 4.56
TEVC | 10.5
WDRP | ≤ 0.25
YLIT | ≤ 0.25
SMLT | 0.638
MTYH | 3.57
YNGM | ≤ 0.25
MYFP | ≤ 0.25
APRT | ≤ 0.25
WWVA | ≤ 0.25
MYPF | ≤ 0.25
HWAF | ≤ 0.25
DFLY | ≤ 0.25
LTYM | ≤ 0.25
HLVR | ≤ 0.25

Variant | enrichment ratio
GSYC | ≤ 0.25
KAPM | ≤ 0.25
VTYI | ≤ 0.25
WEEK | ≤ 0.25
CLNV | ≤ 0.25
EGVI | ≤ 0.25
SPWN | ≤ 0.25
QAFY | 1.67
GRWL | ≤ 0.25
LMYS | ≤ 0.25
NHMR | ≤ 0.25
MYKS | ≤ 0.25
FGVR | ≤ 0.25
DTKH | ≤ 0.25
MFRF | ≤ 0.25
ECFT | ≤ 0.25
DQCK | ≤ 0.25
AMKK | ≤ 0.25
WCGK | ≤ 0.25
VTSC | ≤ 0.25
QNVP | ≤ 0.25
HVDN | ≤ 0.25
AQKS | ≤ 0.25
FLIG | ≤ 0.25

Variant | enrichment ratio
DIRF | ≤ 0.25
FPTT | ≤ 0.25
VFRG | ≤ 0.25
AIDH | ≤ 0.25
PILD | ≤ 0.25
NYDI | ≤ 0.25
MGVR | ≤ 0.25
HFVI | ≤ 0.25
QKHA | ≤ 0.25
MSGE | 6.35
NLEW | ≤ 0.25
NVHW | ≤ 0.25
FLHW | ≤ 0.25
HCAN | ≤ 0.25
QTFH | ≤ 0.25
SVTV | 11.3
KTGD | ≤ 0.25
HYKW | ≤ 0.25
TDDG | ≤ 0.25
IIRD | ≤ 0.25
GWFM | ≤ 0.25
MFEP | ≤ 0.25
LCWW | ≤ 0.25
AVWR | ≤ 0.25

Variant | enrichment ratio
IGTD | ≤ 0.25
MDCG | ≤ 0.25
EVYF | ≤ 0.25
PILQ | ≤ 0.25
TWDY | ≤ 0.25
RHWH | ≤ 0.25
TYDL | ≤ 0.25
AKRK | ≤ 0.25
RMSS | ≤ 0.25
QLNT | ≤ 0.25
MQAH | 7.5
MIAR | 4.26
RPLS | ≤ 0.25
NIKF | ≤ 0.25
TCCT | 7.4
RHSD | ≤ 0.25
CFYY | ≤ 0.25
KCYR | ≤ 0.25
SPCR | ≤ 0.25
QAII | ≤ 0.25
AQRD | ≤ 0.25
KASN | ≤ 0.25
LKYP | ≤ 0.25
WDPD | ≤ 0.25

Variant | enrichment ratio
IDWM | ≤ 0.25
NISG | ≤ 0.25
VADA | ≤ 0.25
MNPY | ≤ 0.25
HVGI | ≤ 0.25
VHYV | ≤ 0.25
IKPR | ≤ 0.25
WDHW | ≤ 0.25
TGDQ | ≤ 0.25
STTM | 14.3
WEAP | ≤ 0.25
FMEE | ≤ 0.25
NYLQ | ≤ 0.25
LWCK | ≤ 0.25
NGAP | ≤ 0.25
ITCA | ≤ 0.25
QIRK | ≤ 0.25
SFLN | ≤ 0.25
SIHK | ≤ 0.25
DVMV | ≤ 0.25
HTVD | ≤ 0.25
PEMY | ≤ 0.25
AMCI | 14.1
HIFV | ≤ 0.25

Variant | enrichment ratio
MSMA | ≤ 0.25
SRFV | ≤ 0.25
FMRC | ≤ 0.25
SMYP | ≤ 0.25
WQFP | ≤ 0.25
AIYG | 0.334
AMIK | ≤ 0.25
KHNW | ≤ 0.25
WLVY | ≤ 0.25
DNSI | ≤ 0.25
VRPD | ≤ 0.25
HEHL | ≤ 0.25
VDSH | ≤ 0.25
KLFL | ≤ 0.25
KMID | ≤ 0.25
EKYL | ≤ 0.25
FCLA | 1.1
ASRA | ≤ 0.25
VQAG | ≤ 0.25
VYKI | ≤ 0.25
PWFH | ≤ 0.25
PHCR | ≤ 0.25
DLAR | ≤ 0.25
QEDG | ≤ 0.25

Variant | enrichment ratio
CFRS | ≤ 0.25
HMLW | ≤ 0.25
AGVK | ≤ 0.25
IQEQ | ≤ 0.25
INWA | ≤ 0.25
KDCP | ≤ 0.25
EQIP | ≤ 0.25
NHSM | ≤ 0.25
WELK | ≤ 0.25
MDNN | ≤ 0.25
YFMP | ≤ 0.25
QYMK | ≤ 0.25
IMIP | ≤ 0.25
NSEQ | ≤ 0.25
YWLC | ≤ 0.25
GSCI | 10.8
LSQQ | ≤ 0.25
FNGV | 0.37
YMYE | ≤ 0.25
QLRV | ≤ 0.25
TLCH | ≤ 0.25
NMKF | ≤ 0.25
YMLY | ≤ 0.25
LYDQ | ≤ 0.25

Variant | enrichment ratio
MCYE | ≤ 0.25
NHNF | ≤ 0.25
KLYG | ≤ 0.25
FAYY | ≤ 0.25
VPWP | ≤ 0.25
RLLC | ≤ 0.25
RKVD | ≤ 0.25
EHSF | ≤ 0.25
FIQS | ≤ 0.25
PNKN | ≤ 0.25
HEKP | ≤ 0.25
LRVP | ≤ 0.25
RESS | ≤ 0.25
LMGW | ≤ 0.25
FYQS | ≤ 0.25
GPTP | ≤ 0.25
DHPG | ≤ 0.25
FFKI | ≤ 0.25
KHVF | ≤ 0.25
LYVD | ≤ 0.25
PIHV | ≤ 0.25
TESK | 6.64
VNTT | ≤ 0.25
PHKY | ≤ 0.25

Variant | enrichment ratio
SDGE | ≤ 0.25
QTHN | ≤ 0.25
GPVG | ≤ 0.25
VTWT | ≤ 0.25
SFCW | ≤ 0.25
IPKC | ≤ 0.25
TKFY | ≤ 0.25
KSDR | ≤ 0.25
GAMK | ≤ 0.25
LRRA | ≤ 0.25
NQFC | ≤ 0.25
ILIT | ≤ 0.25
VHGI | ≤ 0.25
GFTA | ≤ 0.25
DYPG | ≤ 0.25
GNGP | ≤ 0.25
RYCT | ≤ 0.25
PPRL | ≤ 0.25
AGIL | 7.93
WIRS | ≤ 0.25
KIVW | ≤ 0.25
QGTW | ≤ 0.25
SPAF | ≤ 0.25
LVWW | ≤ 0.25

Variant | enrichment ratio
EPQS | ≤ 0.25
QIVL | ≤ 0.25
QRDR | ≤ 0.25
SERM | ≤ 0.25
AYGG | ≤ 0.25
AGRN | ≤ 0.25
ARFM | ≤ 0.25
EADR | ≤ 0.25
KMII | ≤ 0.25
SGLG | 15.5
KDHY | ≤ 0.25
YERV | ≤ 0.25
RCTA | ≤ 0.25
PDTY | ≤ 0.25
YPCH | ≤ 0.25
WQSK | ≤ 0.25
TWMC | ≤ 0.25
GLVA | ≤ 0.25
